# Experimental data: the supplement of paper PMC8728848
# The other results are listed elsewhere or left out.
# B1: Pwp5 ND (Candida glabrata) (protein)
# chain: MGSSHHHHHHSSGLVPRGSHMASANPVPLTNVCYFPEEYPRQAGFRAITAGLASTILQGSVDELLNYSGLSSLTTQQTTTTTPNFQLPTLPLPTNVYGLTVVPLYLLVQLQGYFVPPVSGQYTFSLENTNDAAIIFFGNPSAFPCGDLSAWPQASADDITVTDGTFPSRTLFLKAGVAYPMRISYYNSLGSGNLAVSFTDPGGTKRTNWNGYIWRYNSCSTCTYT
# Tests used:
# Assay in all cases: glycan array binding signal (z-score within array); higher = stronger binding
# Conditions in all cases: glycan notation: IUPAC condensed, linker removed
# GlcNAc(b1-3)Gal(b1-4)Glc = target: GlcNAc(b1-3)Gal(b1-4)Glc
# Outline: (§1)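 Glycan array data were curated from 3228 arrays in the Consortium for Functional Glycomics database and kept only where the protein sequence was available. Glycan names were converted to IUPAC-condensed notation, and columns mapping to the same glycan were averaged. The binding signal is a within-array Z-score, averaged across arrays of the same protein sequence at different concentrations or buffers and across linkers. Negative Z-scores can be read as non-binding.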
# [1] = target: GlcNAc(b1-3)Gal(b1-4)GlcNAc
# Outline: as §1
# [2] = target: GlcNAc(b1-3)Gal(b1-4)GlcNAc(b1-2)Man(a1-3)[GlcNAc(b1-3)Gal(b1-4)GlcNAc(b1-2)Man(a1-6)]Man(b1-4)GlcNAc(b1-4)GlcNAc
# Outline: as §1
# [3] = target: GlcNAc(b1-3)Gal(b1-4)GlcNAc(b1-2)Man(a1-3)[GlcNAc(b1-3)Gal(b1-4)GlcNAc(b1-2)Man(a1-6)]Man(b1-4)GlcNAc(b1-4)[Fuc(a1-6)]GlcNAc
# Outline: as §1
# [4] = target: GlcNAc(b1-3)Gal(b1-4)GlcNAc(b1-2)[GlcNAc(b1-3)Gal(b1-4)GlcNAc(b1-6)]Man(a1-6)[GlcNAc(b1-3)Gal(b1-4)GlcNAc(b1-2)Man(a1-3)]Man(b1-4)GlcNAc(b1-4)GlcNAc
# Outline: as §1
# [5] = target: GlcNAc(b1-3)Gal(b1-4)GlcNAc(b1-3)Gal(b1-4)GlcNAc
# Outline: as §1
# [6] = target: GlcNAc(b1-3)Gal(b1-4)GlcNAc(b1-3)Gal(b1-4)GlcNAc(b1-2)Man(a1-3)[GlcNAc(b1-3)Gal(b1-4)GlcNAc(b1-3)Gal(b1-4)GlcNAc(b1-2)Man(a1-6)]Man(b1-4)GlcNAc(b1-4)GlcNAc
# Outline: as §1
# [7] = target: GlcNAc(b1-3)Gal(b1-4)GlcNAc(b1-3)Gal(b1-4)GlcNAc(b1-2)Man(a1-3)[GlcNAc(b1-3)Gal(b1-4)GlcNAc(b1-3)Gal(b1-4)GlcNAc(b1-2)Man(a1-6)]Man(b1-4)GlcNAc(b1-4)[Fuc(a1-6)]GlcNAc
# Outline: as §1
# [8] = target: GlcNAc(b1-3)Gal(b1-4)GlcNAc(b1-3)Gal(b1-4)GlcNAc(b1-2)[GlcNAc(b1-3)Gal(b1-4)GlcNAc(b1-3)Gal(b1-4)GlcNAc(b1-6)]Man(a1-6)[GlcNAc(b1-3)Gal(b1-4)GlcNAc(b1-3)Gal(b1-4)GlcNAc(b1-2)Man(a1-3)]Man(b1-4)GlcNAc(b1-4)[Fuc(a1-6)]GlcNAc
# Outline: as §1
# [9] = target: GlcNAc(b1-3)Gal(b1-4)GlcNAc(b1-3)Gal(b1-4)GlcNAc(b1-3)Gal(b1-4)GlcNAc(b1-2)Man(a1-3)[GlcNAc(b1-3)Gal(b1-4)GlcNAc(b1-3)Gal(b1-4)GlcNAc(b1-3)Gal(b1-4)GlcNAc(b1-2)Man(a1-6)]Man(b1-4)GlcNAc(b1-4)GlcNAc
# Outline: as §1
# [10] = target: GlcNAc(b1-3)Gal(b1-4)GlcNAc(b1-3)Gal(b1-4)GlcNAc(b1-3)Gal(b1-4)GlcNAc(b1-2)Man(a1-3)[GlcNAc(b1-3)Gal(b1-4)GlcNAc(b1-3)Gal(b1-4)GlcNAc(b1-3)Gal(b1-4)GlcNAc(b1-2)Man(a1-6)]Man(b1-4)GlcNAc(b1-4)[Fuc(a1-6)]GlcNAc
# Outline: as §1
# [11] = target: GlcNAc(b1-3)Gal(b1-4)GlcNAc(b1-3)Gal(b1-4)GlcNAc(b1-3)Gal(b1-4)GlcNAc(b1-2)[GlcNAc(b1-3)Gal(b1-4)GlcNAc(b1-3)Gal(b1-4)GlcNAc(b1-3)Gal(b1-4)GlcNAc(b1-6)]Man(a1-6)[GlcNAc(b1-3)Gal(b1-4)GlcNAc(b1-3)Gal(b1-4)GlcNAc(b1-3)Gal(b1-4)GlcNAc(b1-2)Man(a1-3)]Man(b1-4)GlcNAc(b1-4)[Fuc(a1-6)]GlcNAc
# Outline: as §1
# [12] = target: GlcNAc(b1-3)Gal(b1-4)GlcNAc(b1-3)Gal(b1-4)GlcNAc(b1-3)Gal(b1-4)GlcNAc(b1-3)Gal(b1-4)GlcNAc(b1-2)Man(a1-3)[GlcNAc(b1-3)Gal(b1-4)GlcNAc(b1-3)Gal(b1-4)GlcNAc(b1-3)Gal(b1-4)GlcNAc(b1-3)Gal(b1-4)GlcNAc(b1-2)Man(a1-6)]Man(b1-4)GlcNAc(b1-4)GlcNAc
# Outline: as §1
# [13] = target: GlcNAc(b1-3)Gal(b1-4)GlcNAc(b1-3)Gal(b1-4)GlcNAc(b1-3)Gal(b1-4)GlcNAc(b1-3)Gal(b1-4)GlcNAc(b1-2)Man(a1-3)[GlcNAc(b1-3)Gal(b1-4)GlcNAc(b1-3)Gal(b1-4)GlcNAc(b1-3)Gal(b1-4)GlcNAc(b1-3)Gal(b1-4)GlcNAc(b1-2)Man(a1-6)]Man(b1-4)GlcNAc(b1-4)[Fuc(a1-6)]GlcNAc
# Outline: as §1
# [14] = target: GlcNAc(b1-3)Gal(b1-4)GlcNAc(b1-3)Gal(b1-4)GlcNAc(b1-3)Gal(b1-4)GlcNAc(b1-3)Gal(b1-4)GlcNAc(b1-2)[GlcNAc(b1-3)Gal(b1-4)GlcNAc(b1-3)Gal(b1-4)GlcNAc(b1-3)Gal(b1-4)GlcNAc(b1-3)Gal(b1-4)GlcNAc(b1-6)]Man(a1-6)[GlcNAc(b1-3)Gal(b1-4)GlcNAc(b1-3)Gal(b1-4)GlcNAc(b1-3)Gal(b1-4)GlcNAc(b1-3)Gal(b1-4)GlcNAc(b1-2)Man(a1-3)]Man(b1-4)GlcNAc(b1-4)[Fuc(a1-6)]GlcNAc
# Outline: as §1
# [15] = target: GlcNAc(b1-3)Gal(b1-4)GlcNAc(b1-3)Gal(b1-4)GlcNAc(b1-3)GalNAc
# Outline: as §1
# [16] = target: GlcNAc(b1-3)Gal(b1-4)GlcNAc(b1-3)GalNAc
# Outline: as §1
# [17] = target: GlcNAc(b1-3)Gal(b1-4)GlcNAc(b1-3)[GlcNAc(b1-3)Gal(b1-4)GlcNAc(b1-3)]GalNAc
# Outline: as §1
# [18] = target: GlcNAc(b1-3)Gal(b1-4)GlcNAc(b1-6)[Gal(b1-3)]GalNAc
# Outline: as §1
# [19] = target: GlcNAc(b1-3)Gal(b1-4)GlcNAc(b1-6)[GlcNAc(b1-3)Gal(b1-3)]GalNAc
# Outline: as §1
# [20] = target: GlcNAc(b1-3)Gal(b1-4)GlcNAc(b1-6)[GlcNAc(b1-3)]Gal(b1-4)GlcNAc
# Outline: as §1
# GlcNAc(b1-3)GalNAc = target: GlcNAc(b1-3)GalNAc
# Outline: as §1
# GlcNAc(b1-3)Man = target: GlcNAc(b1-3)Man
# Outline: as §1
# [21] = target: GlcNAc(b1-3)[GlcNAc(b1-4)][GlcNAc(b1-6)]GlcNAc
# Outline: as §1
# [22] = target: GlcNAc(b1-3)[GlcNAc(b1-6)]Gal(b1-4)GlcNAc
# Outline: as §1
# [23] = target: GlcNAc(b1-3)[GlcNAc(b1-6)]GalNAc
# Outline: as §1
# [24] = target: GlcNAc(b1-4)Gal(b1-4)GlcNAc
# Outline: as §1
# GlcNAc(b1-4)GlcNAc = target: GlcNAc(b1-4)GlcNAc
# Outline: as §1
# [25] = target: GlcNAc(b1-4)GlcNAc(b1-4)GlcNAc
# Outline: as §1
# [26] = target: GlcNAc(b1-4)GlcNAc(b1-4)GlcNAc(b1-4)GlcNAc(b1-4)GlcNAc
# Outline: as §1
# [27] = target: GlcNAc(b1-4)GlcNAc(b1-4)GlcNAc(b1-4)GlcNAc(b1-4)GlcNAc(b1-4)GlcNAc
# Outline: as §1
# [28] = target: GlcNAc(b1-4)[GlcNAc(b1-6)]GalNAc
# Outline: as §1
# [29] = target: GlcNAc(b1-6)Gal(b1-4)GlcNAc
# Outline: as §1
# GlcNAc(b1-6)GalNAc = target: GlcNAc(b1-6)GalNAc
# Outline: as §1
# [30] = target: GlcNAc6S(b1-3)Gal(b1-4)GlcNAc
# Outline: as §1
# Kdn(a2-3)Gal(b1-3)GalNAc = target: Kdn(a2-3)Gal(b1-3)GalNAc
# Outline: as §1
# Kdn(a2-3)Gal(b1-3)GlcNAc = target: Kdn(a2-3)Gal(b1-3)GlcNAc
# Outline: as §1
# Kdn(a2-3)Gal(b1-4)Glc = target: Kdn(a2-3)Gal(b1-4)Glc
# Outline: as §1
# Kdn(a2-3)Gal(b1-4)GlcNAc = target: Kdn(a2-3)Gal(b1-4)GlcNAc
# Outline: as §1
# [31] = target: Kdn(a2-3)Gal(b1-4)[Fuc(a1-3)]GlcNAc
# Outline: as §1
# Kdn(a2-6)Gal(b1-4)GlcNAc = target: Kdn(a2-6)Gal(b1-4)GlcNAc
# Outline: as §1
# [32] = target: Man(a1-2)Man(a1-2)Man(a1-3)Man
# Outline: as §1
# [33] = target: Man(a1-2)Man(a1-2)Man(a1-6)[Man(a1-3)]Man
# Outline: as §1
# Man(a1-2)Man(a1-3)Man = target: Man(a1-2)Man(a1-3)Man
# Outline: as §1
# [34] = target: Man(a1-2)Man(a1-3)[Man(a1-2)Man(a1-6)]Man
# Outline: as §1
binder,measurement,setting,value
B1,glycan array binding signal (z-score),GlcNAc(b1-3)Gal(b1-4)Glc,-0.468
same,glycan array binding signal (z-score),[1],-0.273
same,glycan array binding signal (z-score),[2],-0.568
same,glycan array binding signal (z-score),[3],0.294
same,glycan array binding signal (z-score),[4],1.99
same,glycan array binding signal (z-score),[5],-0.44
same,glycan array binding signal (z-score),[6],0.413
same,glycan array binding signal (z-score),[7],-0.305
same,glycan array binding signal (z-score),[8],1.62
same,glycan array binding signal (z-score),[9],0.239
same,glycan array binding signal (z-score),[10],0.018
same,glycan array binding signal (z-score),[11],1.57
same,glycan array binding signal (z-score),[12],0.063
same,glycan array binding signal (z-score),[13],-0.937
same,glycan array binding signal (z-score),[14],1.86
same,glycan array binding signal (z-score),[15],-0.597
same,glycan array binding signal (z-score),[16],-0.265
same,glycan array binding signal (z-score),[17],-0.226
same,glycan array binding signal (z-score),[18],0.82
same,glycan array binding signal (z-score),[19],-0.592
same,glycan array binding signal (z-score),[20],-0.57
same,glycan array binding signal (z-score),GlcNAc(b1-3)GalNAc,-1.09
same,glycan array binding signal (z-score),GlcNAc(b1-3)Man,-0.2
same,glycan array binding signal (z-score),[21],-0.483
same,glycan array binding signal (z-score),[22],-0.152
same,glycan array binding signal (z-score),[23],-0.371
same,glycan array binding signal (z-score),[24],-0.154
same,glycan array binding signal (z-score),GlcNAc(b1-4)GlcNAc,-0.664
same,glycan array binding signal (z-score),[25],0.732
same,glycan array binding signal (z-score),[26],-0.519
same,glycan array binding signal (z-score),[27],1.11
same,glycan array binding signal (z-score),[28],-0.595
same,glycan array binding signal (z-score),[29],0.197
same,glycan array binding signal (z-score),GlcNAc(b1-6)GalNAc,-0.162
same,glycan array binding signal (z-score),[30],-0.665
same,glycan array binding signal (z-score),Kdn(a2-3)Gal(b1-3)GalNAc,0.06
same,glycan array binding signal (z-score),Kdn(a2-3)Gal(b1-3)GlcNAc,-0.251
same,glycan array binding signal (z-score),Kdn(a2-3)Gal(b1-4)Glc,0.809
same,glycan array binding signal (z-score),Kdn(a2-3)Gal(b1-4)GlcNAc,0.172
same,glycan array binding signal (z-score),[31],0.136
same,glycan array binding signal (z-score),Kdn(a2-6)Gal(b1-4)GlcNAc,-0.561
same,glycan array binding signal (z-score),[32],0.427
same,glycan array binding signal (z-score),[33],-0.687
same,glycan array binding signal (z-score),Man(a1-2)Man(a1-3)Man,-0.624
same,glycan array binding signal (z-score),[34],-0.519
